Laboratory results from the antibiotic and cytotoxicity screens of Wong et al. (2023).
Some of the results follow.

How the values were obtained:
[1] = system: HSkMC (human skeletal muscle cells); assay: cytotoxicity call (relative viability < 0.9); settings: 10 µM
[2] = system: S. aureus RN4220; assay: growth inhibition call (relative growth <= 0.2); settings: 50 µM

| SMILES | cytotoxicity call [1] | growth inhibition call [2] |
| --- | --- | --- |
| C[C@@H]1CN([C@H](C)CO)C(=O)c2cc(NC(=O)C3CCCCC3)ccc2O[C@@H]1CN(C)C(=O)Nc1ccc(C(F)(F)F)cc1 | inactive | inactive |
| C=CC1=C(C(=O)O)N2C(=O)C(NC(=O)C(=NO)c3csc(N)n3)C2SC1 (configuration not stated) | inactive | active |
| C[C@@H]1CCCCO[C@@H](CN(C)Cc2ccc(C(=O)O)cc2)[C@H](C)CN([C@H](C)CO)C(=O)c2cc(NS(=O)(=O)c3ccccc3)ccc2O1 | inactive | inactive |
| CC(C)N1C[C@@H](CNCc2ccc(Oc3ccccc3)cc2)Oc2c(NC(=O)c3ccncc3)cccc2C1=O | inactive | inactive |
| COc1cccc(S(=O)(=O)N2C[C@@H](O)COC[C@@H]3O[C@@H](CC(=O)N4CCOCC4)CC[C@H]32)c1 | inactive | inactive |
| Cc1noc(C)c1NC(=O)Nc1ccc2c(c1)CC(=O)N([C@H](C)CO)C[C@@H](C)[C@@H](CN(C)Cc1ccc(Oc3ccccc3)cc1)O2 | inactive | inactive |
| C[C@@H]1CN([C@H](C)CO)C(=O)c2cc(NC(=O)CCC(F)(F)F)ccc2O[C@H]1CN(C)Cc1ccc(C(F)(F)F)cc1 | inactive | inactive |
| Cn1c([N+](=O)[O-])cnc1COC(N)=O | inactive | inactive |
| CSc1cccc(NC(=O)/C=C/c2ccc(C(C)C)cc2)c1 | inactive | inactive |
| C[C@H](CO)N1C[C@H](C)[C@H](CN(C)C(=O)Nc2ccnc(N3CCOCC3)c2)OCc2cnnn2CCCC1=O | inactive | inactive |
| Cc1c(NC(C)C)c(=O)n(-c2ccccc2)n1C.Cl | inactive | inactive |
| O=C(NCc1ccccn1)C1CCNCC1 | inactive | inactive |
| COc1ccccc1-c1cnc2c(c1)C(=O)N([C@@H](C)CO)C[C@H](C)[C@@H](CN(C)C(=O)c1ccncc1)O2 | inactive | inactive |
| CC(C)NC(=O)Nc1ccc2c(c1)CC(=O)N([C@@H](C)CO)C[C@H](C)[C@H](CN(C)Cc1ccc(Oc3ccccc3)cc1)O2 | inactive | inactive |
| C[C@H]1CCCCO[C@H](CN(C)Cc2ccncc2)[C@@H](C)CN([C@@H](C)CO)C(=O)c2cc(NC(=O)Nc3cccc4ccccc34)ccc2O1 | inactive | inactive |
| COc1ccc2c3c([nH]c2c1)[C@@H](CO)N(C[C@]13CCN(CC1)C(=O)Nc1ccccc1)C(=O)Nc1ccc(cc1)F | inactive | inactive |
| C[C@@H]1CCCCO[C@@H](CN(C)C(=O)NC2CCCCC2)[C@H](C)CN([C@H](C)CO)C(=O)c2cc(NC(=O)Nc3cccc4ccccc34)ccc2O1 | inactive | inactive |
| Cc1noc(C)c1NC(=O)Nc1ccc2c(c1)CC(=O)N([C@H](C)CO)C[C@H](C)[C@@H](CN(C)Cc1ccc(Oc3ccccc3)cc1)O2 | inactive | inactive |
| O=C(C[C@@H]1CC[C@@H]2[C@H](COC[C@@H](O)CN2Cc2cc(F)ccc2F)O1)N[C@@H]1CCN(Cc2ccccc2)C1 | inactive | inactive |
| COc1ccc([Si](C)(C)[C@@H]2[C@@H](CCn3cc(CCO)nn3)O[C@]3(C(=O)N(C)c4ccccc43)[C@H]2C)cc1 | inactive | inactive |
| O=C(C[C@@H]1C[C@@H]2c3cc(NC(=O)NC4CCCC4)ccc3O[C@@H]2[C@H](CO)O1)NCc1ccc2c(c1)OCO2 | inactive | inactive |

| SMILES | cytotoxicity call [1] | growth inhibition call [2] |
| --- | --- | --- |
| C[C@H](CO)N1C[C@H](C)[C@H](CN(C)Cc2ccc(C(=O)Nc3ccccc3N)cc2)Oc2ccc(NS(=O)(=O)c3cn(C)cn3)cc2C1=O | inactive | inactive |
| COc1ccc(-c2cc(=O)c3c(O)c(OC)c(O[C@H]4O[C@H](CO[C@@H]5O[C@@H](C)[C@H](O)[C@@H](O)[C@H]5O)[C@@H](O)[C@H](O)[C@H]4O)cc3o2)cc1 | inactive | inactive |
| Cc1ccc(S(=O)(=O)N(C)C[C@H]2OCCCC[C@@H](C)Oc3ccc(NC(=O)C4CCCCC4)cc3C(=O)N([C@@H](C)CO)C[C@H]2C)cc1 | inactive | inactive |
| CCCCC(=O)C1CCC(c2ccc(Cl)cc2)CC1 (configuration not stated) | inactive | inactive |
| Cc1ccc(S(=O)(=O)N[C@@H]2CC[C@H](CC(=O)N3CCC(Cc4ccccc4)CC3)O[C@@H]2CO)cc1 | inactive | inactive |
| C[C@@H]1CC=CC[C@H](c2cccc(Cl)c2)NC(=O)[C@@H](Cc2ccccc2)N(C)C(=O)c2ccccc2O1 | inactive | inactive |
| Cc1noc(C)c1NC(=O)Nc1ccc2c(c1)CC(=O)N([C@@H](C)CO)C[C@H](C)[C@@H](CN(C)S(=O)(=O)c1cccs1)O2 | inactive | inactive |
| Cc1noc(C)c1S(=O)(=O)Nc1cccc2c1O[C@H](CN(C)S(=O)(=O)c1ccc(Cl)cc1)[C@H](C)CN([C@H](C)CO)C2=O | inactive | inactive |
| COC(=O)c1c(C(=O)OC)c2n(c(=O)c1-c1ccccc1)[C@@H]1c3ccccc3O[C@@](CO)([C@@H]1CO)N2C | inactive | inactive |
| O=C(C1=C[C@H](c2ccc(Br)cc2)C[C@H](OCc2ccc(CO)cc2)O1)N1CCN(Cc2ccccc2)CC1 | inactive | inactive |
| C[C@@H]1CN([C@@H](C)CO)C(=O)c2cc(NC(=O)NC3CCCCC3)ccc2O[C@H]1CN(C)Cc1ccc(Oc2ccccc2)cc1 | active | inactive |
| CNC(=O)C[C@@H]1CC[C@@H]2[C@H](COC[C@@H](O)CN2C(=O)c2ccccn2)O1 | inactive | inactive |
| O=c1oc2ccccc2c(O)c1Cc1c(O)c2ccccc2oc1=O | inactive | active |
| C[C@@H]1CN([C@H](C)CO)C(=O)c2cccc(NC(=O)CCCCCC(=O)Nc3ccccc3N)c2O[C@H]1CN(C)S(C)(=O)=O | inactive | inactive |
| O=c1cc[nH]c(C(F)(F)F)n1 | inactive | inactive |
| C[C@@H]1CN([C@H](C)CO)C(=O)c2c(c3ccccc3n2C)-c2ccccc2CO[C@H]1CN(C)Cc1ccc(Cl)c(Cl)c1 | inactive | inactive |
| C[C@H](CO)N1C[C@H](C)[C@@H](CN(C)Cc2ccc(C(F)(F)F)cc2)Oc2ccc(NC(=O)Cc3ccccc3)cc2CC1=O | inactive | inactive |
| C[C@H]1CCCCO[C@H](CN(C)Cc2ccncc2)[C@@H](C)CN([C@@H](C)CO)C(=O)c2cc(NC(=O)NC3CCCCC3)ccc2O1 | inactive | inactive |
| CN1C(=O)c2cc(NC(=O)c3ccc(F)c(F)c3)ccc2OC[C@H]2O[C@@H](CC(=O)N3CCOCC3)CC[C@@H]21 | inactive | inactive |
| CCOC(=O)c1ccc(N2NC(=O)/C(=C/c3ccc([N+](=O)[O-])o3)C2=O)cc1 | inactive | inactive |
